# Hit rate of the full screen: of about 410,000 compounds, about 530 (0.13%) were called active. Inconclusive means that the source gave no clear call. Such entries were picked first, then a sample of the others. The call rests on the fitted dose curve; in most records, active means well fitted inhibition curve with a large enough effect; inconclusive means small, poorly fitted or top-dose-only effect, or another doubt; inactive means no such curve, though single readings can be large or run the other way. Potencies of inconclusive entries are doubtful fits and often do not repeat.
# Assay: qHTS of GLP-1 Receptor Inverse Agonists: Cytotox Screen
# Details: HEK293 cAMP-luciferase reporter cells, luminescence, 24 h; activity change, negative = inhibition: at 38.3 µM (top of the series) unless noted
# Procedure, shortened: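 Quantitative HTS format, 1536 wells, 200 cells/uL seeded. Compounds: 23 nL, 24 h, 37 °C. Detection: luciferase reagent, luminescence at 12 min RT; decreased signal taken as cytotoxic.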
# On the % scale 0 is the no-effect control and ±100 the full control effect; potency means the concentration at half of the fitted maximal effect.
SMILES,Potency,"activity change, negative = inhibition"
O=C(Nc1cccc(Cl)c1)N1CCN2C(=O)c3ccccc3C12c1ccccc1 (configuration not stated),"inconclusive: 10 µM [inhibitor, single point]",
COc1ccc(Cc2noc(=O)[nH]2)cc1,,inactive: 9.18%
CCOC(=O)c1[nH]c(COC(=O)CCCOc2ccccc2)c(C(=O)OCC)c1C,,inactive: -8.99%
NC(=O)CC[C@@H]1NC(=O)[C@@H]2CCCN2C(=O)c2cc([N+](=O)[O-])cc(I)c2NCCC[C@@H](C(=O)NC(CC(=O)O)C(N)=O)NC1=O (some centres not stated),"inconclusive: 28.2 µM [inhibitor, single point]",
C[C@H]1CN(Cc2ccccc2)C(=O)[C@@H]1CC(=O)NCc1ccccc1,"inconclusive: 10 µM [inhibitor, single point]",
COc1ccc(-c2csc(NC(=O)c3ccccc3NS(=O)(=O)c3ccc(F)c(F)c3)n2)cc1,"inconclusive: 3.55 µM [inhibitor, partial curve, poor fit]",
Cc1ccc(CNC(=O)C2CCN(C(=O)c3ccc(-n4ccc5ccccc54)s3)CC2)cc1,,inactive: -1.89%
CN(C)CC/C=C1/c2cc(F)ccc2Sc2ccc(Cl)cc21,"inconclusive: 28.2 µM [inhibitor, single point]",
CCCCCCSc1ccc([C@@H]2[C@@H]3C(=O)N(CC)C(=O)[C@@H]3[C@]3(C(=O)OC)CCCCN23)cc1,"inconclusive: 11.2 µM [inhibitor, partial curve, poor fit]",
N#CNC(=Nc1cccc(F)c1)SCc1ccccc1,"inconclusive: 20 µM [inhibitor, partial curve, poor fit]",
O=C(Nc1ccc(Cl)cc1)OCc1cncs1,,inactive: -4.83%
COc1ccc2c(c1)C(C)=CC(C)(C)N2S(=O)(=O)c1ccc(NC(C)=O)cc1,"inconclusive: 0.631 µM [inhibitor, full curve, poor fit]",
CCN(CC(=O)NC(C)C)Cc1nc2sc3c(c2c(=O)[nH]1)CCC3,"inconclusive: 7.94 µM [inhibitor, partial curve, poor fit]",
CC(C)=C[C@H]1C[C@H](C)[C@H]2CC[C@H](C)c3c(O[C@@H]4OC[C@@H](O)[C@H](O)C4O)c(O)c(C)c1c32 (some centres not stated),,inactive: -25%
CSCC[C@H]1COC[C@@H](Cc2ccccc2)N1c1ccccc1,"inconclusive: 0.501 µM [inhibitor, full curve, poor fit]",
CCN1CCN(Cc2ccc(NC(=O)c3ccc(C)c(NC(=O)c4csc(-c5ccncc5)n4)c3)cc2C(F)(F)F)CC1,"inconclusive: 12.6 µM [inhibitor, single point]",
CCOC(=O)c1ccccc1NC(=O)Cn1c(=O)n(CCC(=O)NCc2ccccc2OC)c(=O)c2ccccc21,,inactive: -5.53%
CC(C)C(=O)NNC(=O)c1csc(-c2cccs2)n1,,inactive: -12.3%
CCc1nnc(NC(=O)c2cc(-c3ccncc3)nc3ccccc23)s1,,inactive: 1.4%
O=C(Cn1cc(CCO)nn1)N1CCNCC1,"inconclusive: 1.41 µM [inhibitor, partial curve, poor fit]",
CC(C)c1ccccc1NC(=S)NC(=O)C1CCCCC1,"inconclusive: 28.2 µM [inhibitor, single point]",

SMILES,Potency,"activity change, negative = inhibition"
O=C(CCSc1ccccc1)Nc1nnc(-c2ccccc2)o1,"inconclusive: 28.2 µM [inhibitor, single point]",
Cc1ccc(C(=O)Nc2nc3nc(C)cc(=O)n3[nH]2)cc1,,inactive: 0.878%
CCN(CC)CCNc1ncnc2c1cnn2-c1cc(Cl)ccc1C,"inconclusive: 8.91 µM [inhibitor, partial curve]",
Cc1ccc(/C=N/NC(=O)c2n[nH]c3c2CCCC3)cc1,"inconclusive: 0.501 µM [inhibitor, full curve, poor fit]",
CCOc1ccc2nc(NC(=O)CSc3nc4cccnc4n3C)sc2c1,"inconclusive: 14.1 µM [inhibitor, single point]",
COc1ccc(S(=O)(=O)N(Cc2ccccc2)c2ccccc2C(=O)Nc2ccccc2C(=O)NCc2ccco2)cc1,,inactive: 83.7%
CCOC(=O)c1ccccc1NC(=O)Cn1c(=O)n(CCC(=O)N2CCc3ccccc3C2)c(=O)c2ccccc21,,inactive: 1.94%
Cn1c(SCC(=O)O)nnc1-c1ccc(NC(=O)c2ccc(Cl)c(Cl)c2)cc1,,inactive: 2.23%
COc1cc(/C=N/Nc2nc(C)nc3c2cnn3-c2ccccc2)ccc1O,"inconclusive: 12.6 µM [inhibitor, partial curve, poor fit]",
CCOC(=O)[C@@H]1[C@H]2COc3ccccc3[C@@H]2N2C(=O)N(c3ccc(OC)cc3)C(=O)[C@]12C,"inconclusive: 2.24 µM [inhibitor, full curve, poor fit]",
COc1ccc2[nH]c3c(=O)n(CCCCC(=O)NCCN4CCCC4)c(=S)[nH]c3c2c1,,inactive: 0.723%
CCOC(=O)C1=C(C)NC(=S)NC1c1cc(C)sc1C (configuration not stated),"inconclusive: 28.2 µM [inhibitor, single point]",
CC(C)c1ccc(/C=N/NC(=O)CN(c2cccc(Cl)c2Cl)S(C)(=O)=O)cc1,"inconclusive: 20 µM [inhibitor, single point]",
S=C1NCN(Cc2ccccc2)CN1C1CCCCC1,"inconclusive: 14.1 µM [inhibitor, single point]",
O=C(Nc1cccc(-c2nc3ncccc3o2)c1)c1cc2ccccc2o1,"inconclusive: 14.1 µM [inhibitor, single point]",
CC(C)c1ccc(NC(c2nnc(-c3ccccc3)o2)c2ccc(F)cc2Cl)cc1 (configuration not stated),,inactive: 0.374%
O=C(CSc1cccc2cccnc12)N/N=C/c1cccnc1,"inconclusive: 3.55 µM [inhibitor, full curve]",
Cc1cccc(NNC(N)=S)c1,,inactive: -0.558%
Cc1cccc(N2CCN(C(=O)c3cc4n(n3)C(C(F)(F)F)CC(c3ccco3)N4)CC2)c1C (configuration not stated),"inconclusive: 11.2 µM [inhibitor, partial curve, poor fit]",
CCOc1cc(C#N)c(NC(=O)c2cccnc2)cc1OCC,"inconclusive: 1.26 µM [inhibitor, full curve]",
CCOc1ccc(NC(=O)CCC(=O)NNC(=O)c2ccccc2Cl)cc1,"inconclusive: 10 µM [inhibitor, single point]",

# Reference: PubChem BioAssay AID624418 (National Center for Advancing Translational Sciences (NCATS), 2012)
